Experimental data: a collection of fitness landscapes (doi:10.1016/j.celrep.2020.107928)
Whole data set: some 81,000 sequences, median “one-hybrid fitness for binding NBS DNA” near -0.1, cut for the highest 2% near 0.36. The list shows a part of the results.

B1: Caulobacter ParB omega fusion; a variant is named by its letters at X, in order, B8GW30 (parent)
chain: MESVVVGEPGMSEGRRGLGRGLSALLGEVDAAPAQAPGEQLGGSREAPIEILQRNPDQPRRTFREEDLEDLSNSIREKGVLQPILVRPSPDTAGEYQIVAGERAWRAAQRAGLKTVPIMVRELDDLAVLEIGIIENVQRADLNVLEEALSYKVLMEKFERTQENIAQTIGKSXSHVANXMRLLXLPDEVQSYLVSGELTAXHARAIAAAADPVALAKQIIEGGLSVRETEALARKAPNLSAGKSKGGRPPRVKDTDTQALESDLSSVLGLDVSIDHRGSTGTLTITYATLEQLDDLCNRLTRGI

Variants of: B1
Assay: one-hybrid fitness for binding NBS DNA (the Noc-binding site; scaled: cognate 1, non-cognate 0); higher = stronger binding
Settings: with NBS DNA site
In short: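 Fitness here means the log change in variant-to-wild-type read ratio between plasmids sequenced before and after selection. That scale was set so cognate equals 1 and non-cognate equals 0. The selection was a bacterial one-hybrid screen of Caulobacter ParB libraries, four specificity codons randomised, in E. coli USO carrying a HIS3 reporter with the site 19 bp from the promoter, grown 48 hours at 37°C on M9-minus-histidine with 0.1 mM IPTG and 5 mM 3-AT.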

Point of comparison: RRFG, “one-hybrid fitness for binding NBS DNA” value 0.279. Against it:
- ILTI — lower, ≤ 0.2
- YHPA — lower, ≤ 0.2
- RTYR — higher, 0.522
- RVLN — lower, ≤ 0.2
- ILRT — lower, ≤ 0.2
- NMDL — lower, ≤ 0.2
- ANMT — lower, ≤ 0.2
- PYTS — lower, ≤ 0.2
- ARWS — lower, ≤ 0.2
- SMEP — lower, ≤ 0.2
- EMVL — lower, ≤ 0.2
- QQSN — lower, ≤ 0.2
- LHTQ — lower, ≤ 0.2
- MITT — lower, ≤ 0.2
- LYTC — lower, ≤ 0.2
- TERA — lower, ≤ 0.2
- VITT — lower, ≤ 0.2
- RLYQ — lower, ≤ 0.2
- TKAW — lower, ≤ 0.2
- TKSN — lower, ≤ 0.2
- RGVH — lower, ≤ 0.2
- WHRS — lower, ≤ 0.2
- LETF — lower, ≤ 0.2
- YNLA — lower, ≤ 0.2
- PFIT — lower, ≤ 0.2
- RYDT — lower, 0.204
- QGLC — lower, ≤ 0.2
- LPRM — lower, ≤ 0.2
- DWDR — lower, ≤ 0.2
- DLIM — lower, ≤ 0.2
- GLKY — lower, ≤ 0.2
- GMGG — lower, ≤ 0.2
- IDLG — lower, ≤ 0.2
- LNEC — lower, ≤ 0.2
- RAQI — lower, ≤ 0.2
- KNTM — lower, ≤ 0.2
- NTKG — lower, ≤ 0.2
- NALI — lower, ≤ 0.2
- NKAT — lower, ≤ 0.2
- GFPN — lower, ≤ 0.2
- PLLH — lower, ≤ 0.2
- GLEG — lower, ≤ 0.2
- QTYE — lower, ≤ 0.2
- RAEY — lower, ≤ 0.2
- PTFN — lower, ≤ 0.2
- QIST — higher, 0.311
- AKCH — lower, ≤ 0.2
- VVRF — lower, ≤ 0.2
- RLEK — lower, ≤ 0.2
- CFNR — lower, ≤ 0.2
- MVAT — lower, ≤ 0.2
- KSQF — lower, ≤ 0.2
- MSLS — lower, ≤ 0.2
- VQNS — lower, ≤ 0.2
- SDHA — lower, ≤ 0.2
- LLMV — lower, ≤ 0.2
- WMSS — lower, ≤ 0.2
- EPEL — lower, ≤ 0.2
- CVGT — lower, ≤ 0.2
- QYQA — higher, 0.305
- HVQC — lower, ≤ 0.2
- TCVL — lower, ≤ 0.2
- STCL — lower, ≤ 0.2
- YQNS — lower, ≤ 0.2
- AHRS — lower, ≤ 0.2
- TARV — lower, ≤ 0.2
- RRYG — higher, 0.331
- NKHS — lower, ≤ 0.2
- TRLL — lower, ≤ 0.2
- LKNF — lower, ≤ 0.2
- TNYM — lower, ≤ 0.2
- QSEY — lower, ≤ 0.2
- RTPH — lower, ≤ 0.2
- SIVT — lower, ≤ 0.2
- YVFT — lower, ≤ 0.2
- MAQR — lower, ≤ 0.2
- VADM — lower, ≤ 0.2
- VAER — lower, ≤ 0.2
- LVVF — lower, ≤ 0.2
- FMAS — lower, ≤ 0.2
- AVEG — lower, ≤ 0.2
- LDQR — lower, ≤ 0.2
- EKHY — lower, ≤ 0.2
- VCPC — lower, ≤ 0.2
- TTFS — lower, ≤ 0.2
- QNCN — lower, ≤ 0.2
- GIVG — lower, ≤ 0.2
- PQND — lower, ≤ 0.2
- EFRY — lower, ≤ 0.2
- QQDK — lower, ≤ 0.2
- MSVG — lower, ≤ 0.2
- LLAI — lower, ≤ 0.2
- ASAS — lower, ≤ 0.2
- GHQR — lower, ≤ 0.2
- YALC — lower, ≤ 0.2
- NALA — lower, ≤ 0.2
- MPRS — lower, ≤ 0.2
- LCVN — lower, ≤ 0.2
- YVET — lower, ≤ 0.2
- VANS — lower, ≤ 0.2
- RVAF — lower, ≤ 0.2
- RHKK — lower, 0.208
- PQWG — lower, ≤ 0.2
- RNCG — lower, ≤ 0.2
- ALPE — lower, ≤ 0.2
- SEDR — lower, ≤ 0.2
- HKNP — lower, ≤ 0.2
- VTCK — lower, ≤ 0.2
- QWTM — lower, ≤ 0.2
- SNGA — lower, ≤ 0.2
- NAIM — lower, ≤ 0.2
- DFHC — lower, ≤ 0.2
- WDRG — lower, ≤ 0.2
- YIYR — lower, ≤ 0.2
- AHPQ — lower, ≤ 0.2
- YVSS — lower, ≤ 0.2
- YISW — lower, ≤ 0.2
- PETA — lower, ≤ 0.2
- KNDG — lower, ≤ 0.2
- CTNA — lower, ≤ 0.2
- SNNL — lower, ≤ 0.2
- RNNW — lower, ≤ 0.2
- ARRQ — lower, ≤ 0.2
- KTKW — lower, ≤ 0.2
- SDPL — lower, ≤ 0.2
- KIRY — lower, ≤ 0.2
- SMRT — lower, ≤ 0.2
- IMHC — lower, ≤ 0.2
- EKSD — lower, ≤ 0.2
- QSFY — lower, ≤ 0.2
- RAGC — lower, ≤ 0.2
- RDHK — lower, ≤ 0.2
- HSQL — lower, ≤ 0.2
- HRSN — lower, ≤ 0.2
- FPLS — lower, ≤ 0.2
- TFIS — lower, ≤ 0.2
- RAES — lower, ≤ 0.2
- MGID — lower, ≤ 0.2
- VVDR — lower, ≤ 0.2
- VDKH — lower, ≤ 0.2
- RINW — lower, ≤ 0.2
- DWKY — lower, ≤ 0.2
- HYFN — lower, ≤ 0.2
- GYEP — lower, ≤ 0.2
- PRGL — lower, ≤ 0.2
- IGRT — lower, ≤ 0.2
- SCGI — lower, ≤ 0.2
- YYNT — lower, ≤ 0.2
- GCQS — lower, ≤ 0.2
- TIFC — lower, ≤ 0.2
- IASM — lower, ≤ 0.2
- TACE — lower, ≤ 0.2
- PMTT — lower, ≤ 0.2
- LAMD — lower, ≤ 0.2
- LWRC — lower, ≤ 0.2
- RMVI — lower, ≤ 0.2
- REVV — lower, ≤ 0.2
- HGIR — lower, ≤ 0.2
- YNSM — lower, ≤ 0.2
- RSWY — lower, ≤ 0.2
- NEPI — lower, ≤ 0.2
- GIIN — lower, ≤ 0.2
- PENS — lower, ≤ 0.2
- CNKS — lower, ≤ 0.2
- SVQA — lower, ≤ 0.2
- PLET — lower, ≤ 0.2
- RYII — lower, ≤ 0.2
- SYPR — lower, ≤ 0.2
- YPRS — lower, ≤ 0.2
- AHVS — lower, ≤ 0.2
- NESN — lower, ≤ 0.2
- SQTR — lower, ≤ 0.2
- AIHR — lower, ≤ 0.2
- EWYV — lower, ≤ 0.2
- NCMW — lower, ≤ 0.2
- TNQC — lower, ≤ 0.2
- YFER — lower, ≤ 0.2
- PPSQ — lower, ≤ 0.2
- GPNR — lower, ≤ 0.2
- TPDP — lower, ≤ 0.2
- NLFY — lower, ≤ 0.2
- RFMY — lower, ≤ 0.2
- PSLP — lower, ≤ 0.2
- ATGY — lower, ≤ 0.2
- TERN — lower, ≤ 0.2
- KYET — lower, ≤ 0.2
- LRTR — lower, ≤ 0.2
- KVDW — lower, ≤ 0.2
- FGLG — lower, ≤ 0.2
- QEPT — lower, ≤ 0.2
- PEMY — lower, ≤ 0.2
- DGHG — lower, ≤ 0.2
- TARQ — lower, ≤ 0.2
- PWFS — lower, ≤ 0.2
- TVAN — lower, ≤ 0.2
- DLTY — lower, ≤ 0.2
- QGFR — lower, ≤ 0.2
- ESDV — lower, ≤ 0.2
- FVPV — lower, ≤ 0.2
- ARMK — lower, ≤ 0.2
- FSHL — lower, ≤ 0.2
- SVDG — lower, ≤ 0.2
- VDGC — lower, ≤ 0.2
- TGTY — lower, ≤ 0.2
- NPRM — lower, ≤ 0.2
- TSDC — lower, ≤ 0.2
- SPSR — lower, ≤ 0.2
- NAMN — lower, ≤ 0.2
- RFTH — lower, ≤ 0.2
- SKTD — lower, ≤ 0.2
- DRRG — lower, ≤ 0.2
- ITSI — lower, ≤ 0.2
- TKNC — lower, ≤ 0.2
- EMLY — lower, ≤ 0.2
- WVLS — lower, ≤ 0.2
- HTAF — lower, ≤ 0.2
- LLLH — lower, ≤ 0.2
- QTTL — lower, ≤ 0.2
- MCNF — lower, ≤ 0.2
- ECAT — lower, ≤ 0.2
- RAHS — higher, 0.482
- RDNI — lower, ≤ 0.2
- LLDS — lower, ≤ 0.2
- HFTC — lower, ≤ 0.2
- QVLH — lower, ≤ 0.2
- DWNG — lower, ≤ 0.2
- MPAL — lower, ≤ 0.2
- RVPR — lower, ≤ 0.2
- RFYH — lower, ≤ 0.2
- YRDC — lower, ≤ 0.2
- PIPP — lower, ≤ 0.2
- ATPE — lower, ≤ 0.2
- PPAC — lower, ≤ 0.2
- RHDL — lower, ≤ 0.2
- CQWS — lower, ≤ 0.2
- RLFK — lower, ≤ 0.2
- QLES — lower, ≤ 0.2
- MPEL — lower, ≤ 0.2
- ASRL — lower, ≤ 0.2
- GQNV — lower, ≤ 0.2
- KQQS — lower, ≤ 0.2
- DHCR — lower, ≤ 0.2
- FLNT — lower, ≤ 0.2
- QLQV — lower, ≤ 0.2
- QICT — lower, 0.266
- QDEP — lower, ≤ 0.2
- NQYC — lower, ≤ 0.2
- TPNF — lower, ≤ 0.2
- PQRC — lower, ≤ 0.2
- CSRR — lower, ≤ 0.2
- PWWF — lower, ≤ 0.2
- HPQL — lower, ≤ 0.2
- CYWT — lower, ≤ 0.2
- KTAN — lower, ≤ 0.2
- RKIT — higher, 0.361
- RTAI — lower, ≤ 0.2
- QRRE — higher, 0.346
- FPPA — lower, ≤ 0.2
- QFKY — lower, ≤ 0.2
- RNKK — lower, ≤ 0.2
- RFPF — lower, ≤ 0.2
- KSWS — lower, ≤ 0.2
- WYNS — lower, ≤ 0.2
- DGSR — lower, ≤ 0.2
- VDPG — lower, ≤ 0.2
- DMVV — lower, ≤ 0.2
- YPLG — lower, ≤ 0.2
- PHNS — lower, ≤ 0.2
- HVFR — lower, ≤ 0.2
- PKYT — lower, ≤ 0.2
- VSQS — lower, ≤ 0.2
- HFEY — lower, ≤ 0.2
- ARVQ — lower, ≤ 0.2
- HCQG — lower, ≤ 0.2
- IPGV — lower, ≤ 0.2
- IPNR — lower, ≤ 0.2
- EKRL — lower, ≤ 0.2
- NEKS — lower, ≤ 0.2
- QTKW — higher, 0.439
- QAIM — lower, ≤ 0.2
- FMLV — lower, ≤ 0.2
- RPTW — lower, ≤ 0.2
- SICD — lower, ≤ 0.2
- RSMQ — lower, ≤ 0.2
- FTDG — lower, ≤ 0.2
- LCAR — lower, ≤ 0.2
- AHMD — lower, ≤ 0.2
- NSVY — lower, ≤ 0.2
- IDSS — lower, ≤ 0.2
- TGNY — lower, ≤ 0.2
- LTTS — lower, ≤ 0.2
- WIIF — lower, ≤ 0.2
- QKRN — higher, 0.37
- LLCA — lower, ≤ 0.2
- DPNV — lower, ≤ 0.2
- IIMV — lower, ≤ 0.2
- SKCE — lower, ≤ 0.2
- KGPQ — lower, ≤ 0.2
- LDIG — lower, ≤ 0.2
- NRPM — lower, ≤ 0.2
- NEQC — lower, ≤ 0.2
- CRCS — lower, ≤ 0.2
- PWHG — lower, ≤ 0.2
- AVHS — lower, ≤ 0.2
- DLMV — lower, ≤ 0.2
